# Hit rate of the full screen: of about 310,000 compounds, about 2,200 (0.71%) showed an effect of 50% or more. The effect is printed as a negative number. The list shows a part of the results.
# Target: human ether-à-go-go-related gene (hERG) potassium channel (human, UniProt Q12809)
# Experiment: primary screen, population patch clamp on CHO cells stably expressing hERG
# human ether-à-go-go-related gene (hERG) potassium channel, sequence (Q12809 whole entry, looked up): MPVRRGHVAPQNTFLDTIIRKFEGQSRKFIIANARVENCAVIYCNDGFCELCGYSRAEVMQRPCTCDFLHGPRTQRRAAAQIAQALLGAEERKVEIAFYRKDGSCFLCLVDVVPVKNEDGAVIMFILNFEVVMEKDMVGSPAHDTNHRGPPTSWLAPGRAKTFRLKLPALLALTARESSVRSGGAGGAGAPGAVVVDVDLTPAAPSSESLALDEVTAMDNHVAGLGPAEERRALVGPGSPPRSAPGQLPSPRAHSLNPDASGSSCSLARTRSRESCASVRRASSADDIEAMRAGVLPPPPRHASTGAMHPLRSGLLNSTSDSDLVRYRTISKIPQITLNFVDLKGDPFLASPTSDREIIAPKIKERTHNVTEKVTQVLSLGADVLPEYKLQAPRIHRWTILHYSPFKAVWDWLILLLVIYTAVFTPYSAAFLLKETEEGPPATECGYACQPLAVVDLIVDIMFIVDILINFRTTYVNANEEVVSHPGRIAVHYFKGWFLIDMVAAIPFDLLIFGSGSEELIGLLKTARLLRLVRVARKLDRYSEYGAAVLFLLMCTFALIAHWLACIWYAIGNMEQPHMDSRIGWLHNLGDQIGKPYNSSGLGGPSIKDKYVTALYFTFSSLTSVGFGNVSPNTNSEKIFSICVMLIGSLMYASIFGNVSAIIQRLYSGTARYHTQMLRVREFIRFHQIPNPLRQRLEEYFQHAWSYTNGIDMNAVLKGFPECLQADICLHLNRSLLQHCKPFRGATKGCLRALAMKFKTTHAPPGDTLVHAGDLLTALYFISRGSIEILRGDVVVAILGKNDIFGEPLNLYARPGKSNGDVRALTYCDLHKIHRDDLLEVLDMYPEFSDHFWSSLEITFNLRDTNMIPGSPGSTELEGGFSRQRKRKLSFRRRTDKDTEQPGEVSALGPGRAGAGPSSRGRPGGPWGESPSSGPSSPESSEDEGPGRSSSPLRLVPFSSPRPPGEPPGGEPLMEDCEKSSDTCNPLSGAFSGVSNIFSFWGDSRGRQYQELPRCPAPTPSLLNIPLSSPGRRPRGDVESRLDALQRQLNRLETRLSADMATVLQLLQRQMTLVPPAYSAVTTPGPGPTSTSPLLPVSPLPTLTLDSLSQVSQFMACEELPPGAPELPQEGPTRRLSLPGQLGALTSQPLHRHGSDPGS
row,Structure (SMILES),"hERG current change (%, negative = inhibition) at 1uM [%]"
1,C[C@@H]1CN(C(=O)c2nc3ccc(Cl)cn3c2CNCC[C@@H]2C[C@@H]3C=C[C@H]2C3)C[C@H](C)O1,3.06
2,Cc1ccc(-c2nnc(SCC(=O)Nc3ccccc3F)o2)cc1,10.7
3,O=C(O)CCn1c2ccccc2c2nc3ccccc3nc21,18.2
4,CCC(Sc1nc(C)cc(C)n1)C(=O)NC1=NN=C(c2ccc(C)cc2)CS1 (centres unmarked),5.95
5,Cc1ccc(S(=O)(=O)NCCCCCC(=O)N(C)C)cc1,7.86
6,COc1ccc(S(=O)(=O)Nc2ccc3c(c2)n(C)c(=O)n3C)cc1F,21.6
7,COc1cccc(NC(=O)CSc2ccc3nnc(-c4ccncc4)n3n2)c1,3.46
8,COc1cc(NC(=O)CSC(=S)N2CCCC2)c(OC)cc1Cl,27.5
9,Cc1nc(NCc2ccco2)c2c3c(sc2n1)CCC3,2.14
10,CCOC(=O)C1=C(COC(=O)COc2ccccc2C#N)NC(=O)NC1C (centres unmarked),7.51
11,O=C(CC(NC(=O)c1ccccc1Cl)c1ccccc1)Nc1ccc2c(c1)OCO2 (centres unmarked),11.4
12,O=S(=O)(NC1CCN(S(=O)(=O)c2ccc3c(c2)OCCO3)C1)c1c(F)cccc1F (centres unmarked),12
13,O=C(NCCCn1ccnc1)/C(=C\c1ccco1)NC(=O)c1ccco1,-10.8
14,COc1ccc2nc(CCN(C)C(=O)C3CCC(=O)N(Cc4cccc(F)c4)C3)[nH]c2c1 (centres unmarked),8.35
15,Cc1cc(C)cc(OCC(=O)N2Cc3ccccc3CC2C(=O)O)c1 (centres unmarked),0.521
16,CC1CCc2nn(CC(=O)NCc3ccc4c(c3)OCO4)cc2C1 (centres unmarked),-5.05
17,Cc1ccc(C)c(CN2CCN(c3ncccn3)CC2)c1,7.94
18,CCOC(=O)c1ccc(NC(=O)CCc2nc(-c3ccc(C)cc3)no2)cc1,7.27
19,O=C(O)c1cc(N2C(=O)C3C4C=CC(C4)C3C2=O)ccc1N1CCOCC1 (centres unmarked),3.47

row,Structure (SMILES),"hERG current change (%, negative = inhibition) at 1uM [%]"
1,CN1C2CCC1CC(NC(=O)CSCc1ccc(Cl)cc1Cl)C2 (centres unmarked),-8.82
2,CCN(CC)C(=O)c1nc[nH]c1C(=O)N1CCN(c2ccccc2)CC1,13.5
3,COc1ccccc1N1CCN(CC(=O)Nc2ccnn2C2CCCC2)CC1,5.53
4,COc1ccc(C(c2c(NC(=O)c3ccco3)sc(C)c2C)N2CCOCC2)cc1OC (centres unmarked),0.0157
5,O=C(Nc1ccc(Oc2cccnc2)nc1)c1ccc(C(F)(F)F)cc1,4.92
6,COC(=O)C1C(=O)c2c([nH]c(C(=O)OC3CCCC3C)c2C)CC1C (centres unmarked),8.93
7,O=C(CC1CCCCC1)Nc1ccccc1-c1ccccc1,10.7
8,COc1cc(C2NC(=O)c3ccccc3O2)cc(OC)c1OC (centres unmarked),-0.118
9,COc1ccc(NC(=O)CN2C(=O)CC(C)(C)S(=O)(=O)c3ccccc32)cc1,5.01
10,CNCCCC1Sc2ccccc2Oc2ccccc21.O=C(O)C(=O)O (centres unmarked),2.83
11,CCOc1cc(/C=N/n2cnnc2)ccc1OS(=O)(=O)c1ccccc1,-17.2
12,CC(=O)Nc1ccc(NC(=O)c2ccc(COc3ccccc3Br)o2)cc1,14.2
13,Cc1cccc(C(C(N)=O)c2ncc(C(F)(F)F)cc2Cl)c1 (centres unmarked),-1.26
14,CCOC(=O)C(=CNc1ccc(Oc2cncc(Cl)c2)nc1)C(=O)OCC,5.13
15,NC(=O)C1(N2CCCCC2)CCN(C(=O)c2ccc(-n3cnnn3)cc2)CC1,-19.5
16,CCCCOc1ccc(C(C)NC(=O)C2CCCN(S(=O)(=O)CC)C2)cc1 (centres unmarked),9.99
17,N=C1c2ccccc2CN1NC(=O)CC12CC3CC(CC(C3)C1)C2,3.97
18,CCCc1nnc(SCC(=O)N2CCCCC2)n1CCCOC,10.1
19,Cc1ccc(S(=O)(=O)N(Cc2ccccc2)c2ccccc2C(=O)NCc2ccco2)cc1,14.9

row,Structure (SMILES),"hERG current change (%, negative = inhibition) at 1uM [%]"
1,Cc1ccc(C(=O)N2CCN(c3ccc(NC(=O)COc4ccccc4C)cc3)CC2)cc1,-28.4
2,COC(=O)c1ccc(Oc2ccc(C(C)(C)C)cc2)c([N+](=O)[O-])c1,11.4
3,CC(Cc1ccccc1)NC(=O)c1ccc(N)cc1 (centres unmarked),4.15
4,CC(=O)Nc1ccc(-c2cn3cccnc3n2)cc1,6.42
5,COc1cccc(-c2sc3ccc(OC)cc3c2-c2ccc(OC)cc2F)c1,7.79
6,CCN(CC)CCN1C(=O)/C(=C\c2ccc(Cl)c([N+](=O)[O-])c2)SC1=Nc1ccc(OC)cc1,12.2
7,CC1(C(=O)OCC(=O)Nc2ccccc2)CC1(Cl)Cl (centres unmarked),15.3
8,O=C(c1cc(-c2ccc(Cl)cc2)on1)N1CCc2ccccc2C1,11.6
9,O=C(CCCOc1ccccc1)Nc1ccc(S(=O)(=O)N2CCOCC2)cc1,10
10,COc1cccc(-c2nnc(SCc3cccnc3)o2)c1,12.9
11,O=S(=O)(N1CCOCC1)N1CCN(c2ccc(F)cc2)CC1,4.05
12,COc1ccc(NS(=O)(=O)c2ccc(C)cc2)c([N+](=O)[O-])c1,1.31
13,O=C(N/N=C/c1cccc(Br)c1)c1ccc(N2CCCC2=O)cc1,-12.2
14,COc1ccccc1NC(=O)c1nn(-c2cccc(C(F)(F)F)c2)ccc1=O,12
15,COc1ccc(CCNC(=O)CN(C)S(=O)(=O)c2ccc(Br)s2)cc1OC,-11.6
16,CC(C)(C)C(=O)Nc1ccc2oc(-c3cc(F)c(F)cc3Cl)nc2c1,15.8
17,COc1ccc(CNC(=O)C(C)NC(=O)c2cc3ccccc3o2)cc1 (centres unmarked),-0.419
18,CN(C)c1cccc(C(=O)OCC(=O)N(Cc2ccccc2)C2CCS(=O)(=O)C2)c1 (centres unmarked),8.25

# Source: article PMC4336329 (PLoS ONE, 2015)
